Experimental data: PubChem BioAssay AID1460 (National Center for Advancing Translational Sciences (NCATS), 2008)
The campaign covered roughly 270,000 compounds. About 5,800 (2.1%) were called active. The inconclusive results got no clear call from the source; some entries with a clear call stand among them for comparison. The call rests on the fitted dose curve; in most records, active means well fitted inhibition curve with a large enough effect; inconclusive means small, poorly fitted or top-dose-only effect; inactive means flat fitted curve, though single readings scatter. Where the call is inconclusive, the potency comes from a doubtful curve fit.
Further: nearly all actives have a fitted effect of over 55% in size.
On the % scale 0 is the no-effect control and ±100 the full control effect; potency means the concentration at half of the fitted maximal effect; tags describe the fitted curve by direction and shape.

The compounds below were run against Microtubule-associated protein tau (Homo sapiens) (UniProt P10636) (assay: qHTS for Inhibitors of Tau Fibril Formation, Thioflavin T Binding). Settings: recombinant tau K18 P301L (four-repeat tau fragment), heparin-induced fibrillization, ThT fluorescence; series mostly up to 57.4 µM; activity, negative = inhibition: at the top concentration.
Sequence of UniProt P10636 (P10636 whole entry, looked up, the tested form may be a part): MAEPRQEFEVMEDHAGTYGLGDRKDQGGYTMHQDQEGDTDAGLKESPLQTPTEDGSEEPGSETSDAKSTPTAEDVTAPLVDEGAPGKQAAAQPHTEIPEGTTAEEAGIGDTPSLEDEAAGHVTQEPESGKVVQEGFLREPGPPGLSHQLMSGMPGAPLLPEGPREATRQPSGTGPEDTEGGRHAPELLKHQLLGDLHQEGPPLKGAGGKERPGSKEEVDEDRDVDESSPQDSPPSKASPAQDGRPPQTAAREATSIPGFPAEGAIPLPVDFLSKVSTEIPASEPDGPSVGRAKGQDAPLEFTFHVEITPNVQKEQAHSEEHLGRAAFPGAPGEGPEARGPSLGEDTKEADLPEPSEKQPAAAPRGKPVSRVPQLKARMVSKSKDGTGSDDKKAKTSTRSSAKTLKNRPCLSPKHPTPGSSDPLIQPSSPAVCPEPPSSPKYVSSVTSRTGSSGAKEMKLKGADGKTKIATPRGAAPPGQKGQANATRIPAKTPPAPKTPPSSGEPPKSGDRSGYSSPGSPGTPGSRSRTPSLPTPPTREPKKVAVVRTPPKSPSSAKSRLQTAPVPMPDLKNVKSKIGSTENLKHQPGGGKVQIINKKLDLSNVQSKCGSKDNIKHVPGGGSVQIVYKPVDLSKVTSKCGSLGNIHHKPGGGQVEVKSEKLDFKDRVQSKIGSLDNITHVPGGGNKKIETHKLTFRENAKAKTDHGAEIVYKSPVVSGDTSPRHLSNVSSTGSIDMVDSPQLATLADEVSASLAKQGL
How it was run: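 In this qHTS, human K18 P301L tau is incubated with compound and heparin for 6 hr at 37 C, and Thioflavin T fluorescence then reports fibril load.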
CC(=O)Nc1ccc(NC(=O)C2Cc3ccccc3N2C(=O)c2ccccc2)cc1 (stereo not given) was tested, and the “activity, negative = inhibition” value was inactive: -3.64%.
COCCCNC(=O)C(Cc1ccccc1)NS(=O)(=O)c1ccc2c(c1)c(=O)n(C)c(=O)n2C (stereo not given) was tested, and the “activity, negative = inhibition” value was inactive: 3.53%.
CC(C)CCN1C(=O)c2ccc(C(=O)NCc3ccco3)cc2C1=O was tested, and the “activity, negative = inhibition” value was inactive: -8.3%.
For O=C(NCCc1ccc(F)cc1)C(=O)NCC(c1cccs1)S(=O)(=O)c1ccccc1 (stereo not given), the “activity, negative = inhibition” value was inactive: 3.63%.
CC1(C(=O)Nc2ccc3ccccc3c2)CC1(Br)Br (stereo not given) was tested, and the Potency was inconclusive: 22.4 µM [inhibitor, single point].
For COC(=O)[C@@]1(Cc2ccc(OC)cc2)[C@H]2c3cc(C(=O)N(C)C)n(Cc4ccc(OC)c(OC)c4)c3C[C@H]2CN1C(=O)c1ccccc1, the Potency was inconclusive: 39.8 µM [inhibitor, single point].
With O=C(CC(c1cccs1)N1Cc2ccccc2C1=O)Nc1cccc(F)c1 (stereo not given) the “activity, negative = inhibition” value was inactive: 18.2%.
COc1ccccc1C(=O)NCC(=O)n1nc(C)cc1C was tested, and the “activity, negative = inhibition” value was inactive: -5.11%.
With Cc1noc(C)c1COC(=O)c1ccc(-c2nc3ccccc3s2)s1 the Potency was inconclusive: 3.16 µM [inhibitor, full curve].
For CCOC(=O)C1CCN(c2c(NCCC(C)C)c(=O)c2=O)CC1, the “activity, negative = inhibition” value was inactive: 14.5%.
With CC(=O)N(C)C1=C(O)c2ccccc2C(=O)C1=O the Potency was active: 28.2 µM.
With Cc1ccc(SC2=C(Sc3ccc(C)cc3)C(=O)c3ccccc3C2=O)cc1 the Potency was active: 3.16 µM.
With Cc1oc(-c2ccccc2Cl)nc1CSc1nncn2c1cc1occc12 the Potency was inconclusive: 7.94 µM [inhibitor, partial curve].
COc1ccc(Br)cc1CNC(=O)Cn1ncn2nc(-c3cccs3)cc2c1=O was tested, and the Potency was inconclusive: 39.8 µM [inhibitor, single point].
For CC1CCCN(c2nc(-c3cccnc3)nc3scc(-c4ccccc4)c23)C1 (stereo not given), the Potency was inconclusive: 12.6 µM [inhibitor, partial curve].
Cc1cc([N+](=O)[O-])nn1CCCC(=O)Nc1sc2c(c1C(N)=O)CCCC2 was tested, and the “activity, negative = inhibition” value was inactive: -2.16%.
With Cc1ccc(CNC(=O)C(C)n2c(=O)cc(-c3ccccc3)c3c(C)nn(C)c32)cc1 (stereo not given) the “activity, negative = inhibition” value was inactive: -8.65%.
With CN1/C(=C\C(=O)Nc2ccc(Br)cc2)C(C)(C)c2ccccc21 the Potency was inconclusive: 15.8 µM [inhibitor, partial curve].
Cc1cccc(C(=O)Nc2ccc(C(=O)/C=C/c3cccnc3)cc2)c1 was tested, and the Potency was inconclusive: 3.55 µM [inhibitor, partial curve].
For COc1ccc(C(=O)Nc2ccccc2N2CCOCC2)cc1[N+](=O)[O-], the “activity, negative = inhibition” value was inactive: 9.02%.
With CCCC(=O)N(CCN(C(=O)CCC)c1ccccc1)c1ccccc1 the “activity, negative = inhibition” value was inactive: 0.0619%.
CC(C)CNC1=CC(=O)CC(c2ccco2)C1 (stereo not given) was tested, and the Potency was active: 28.2 µM.
With O=C(Nc1nnc(-c2ccccc2)o1)c1cc(-c2cccs2)nc2ccccc12 the Potency was inconclusive: 14.1 µM [inhibitor, partial curve].
In the case of Cc1ccc(C(=O)N[C@H](C(=O)OCc2cc(=O)n3c(n2)sc2ccccc23)C(C)C)cc1, the “activity, negative = inhibition” value is reported as inactive: -7.75%.
For Cc1cc(C)c(/C=C2\C(=O)Nc3ccccc32)[nH]1, the Potency was active: 3.16 µM.
In the case of CCc1cc2cccc(C)c2nc1SCC(=O)N1CCN(C(=O)c2ccco2)CC1, the Potency is reported as inconclusive: 28.2 µM [inhibitor, partial curve].
For Cc1cc(NC(=O)CN2CCOCC2)n(-c2ccccc2)n1, the “activity, negative = inhibition” value was inactive: -7.72%.
In the case of COc1ccc(NCc2nnc(SCC(=O)Nc3ccccc3OC)o2)cc1, the Potency is reported as inconclusive: 20 µM [inhibitor, partial curve].
CC(=O)NNc1nc(-c2ccc(NC(C)=O)cc2)cs1 was tested, and the “activity, negative = inhibition” value was inactive: -0.63%.
For CCc1c(C)nc2ncnn2c1N1CCC(C(=O)N2CCN(c3ccccc3)CC2)CC1, the “activity, negative = inhibition” value was inactive: -6.48%.
Cc1cccc(-c2nc(C)c(CCNC(=O)C(=O)Nc3ccc(C)c(C)c3)s2)c1 was tested, and the Potency was inconclusive: 2.24 µM [inhibitor, full curve, poor fit].
In the case of CCOc1ccccc1CNc1nc2nc(C)c(CC(=O)OC)c(=O)n2[nH]1, the “activity, negative = inhibition” value is reported as inactive: -5.9%.
In the case of COC(=O)c1nc2ccc(N3CCOCC3)cc2c(C)c1C(=O)OC, the Potency is reported as inconclusive: 11.2 µM [inhibitor, partial curve, poor fit].
In the case of O=C1c2ccccc2C(=O)c2c(O)ccc(O)c21, the Potency is reported as inconclusive: 14.1 µM [inhibitor, partial curve].
With Cc1nc2ccccc2cc1C(=O)N/N=C/c1ccc([N+](=O)[O-])cc1 the Potency was inconclusive: 25.1 µM [inhibitor, single point].
For CCCCc1ccc(/C=C2\C(=O)ON=C2c2ccccc2)s1, the Potency was inconclusive: 22.4 µM [inhibitor, single point].
With O=C(CSc1nc2ccccc2o1)Nc1nc2ccccc2s1 the Potency was inconclusive: 0.447 µM [inhibitor, full curve].
C(=C\c1ccccn1)/c1ccccn1 was tested, and the “activity, negative = inhibition” value was inactive: -14.5%.
For CC1CC(C)CN(C(=S)Nc2ccc(SC(F)F)cc2)C1 (stereo not given), the “activity, negative = inhibition” value was inactive: -7.55%.
For COc1c(C(=O)NCCSC(C)(C)C)ccc2ccccc12, the “activity, negative = inhibition” value was inactive: -4.03%.
CCC1=C(OC(=O)N(CC)CC)N2C(=O)OC(=NCCc3c[nH]c4ccccc34)[C@]2(Cc2ccccc2)[C@H]2C1=CC[C@H]1C(=O)N(C)C(=O)[C@H]12 was tested, and the Potency was inconclusive: 39.8 µM [inhibitor, single point].
With COc1cnc(SCc2ccc(Cl)cc2Cl)nc1Cl the Potency was inconclusive: 31.6 µM [inhibitor, single point].
For CC(=O)Oc1c2c(c3c(c1CC=C(C)C)O[C@@]14C(=CC5CC1C(C)(C)OC4(C/C=C(\C)C(=O)O)C5=O)C3=O)OC(C)(CCC=C(C)C)C=C2 (stereo not given in full), the Potency was active: 31.6 µM.
With CN1CCN(CCC(=O)Nc2ccc(Cl)cc2)CC1 the “activity, negative = inhibition” value was inactive: -14.3%.
With CCCCNC(=S)N(C)/N=C/c1c(C)[nH]c2ccccc12 the Potency was inconclusive: 28.2 µM [inhibitor, single point].
With O=C1c2cccnc2C(O)N1Cc1ccco1 (stereo not given) the “activity, negative = inhibition” value was inactive: -11.4%.
In the case of CCOc1ccc(NC(=O)c2oc3ccccc3c2NC(=O)Cc2cccc(C)c2)cc1, the “activity, negative = inhibition” value is reported as inactive: -0.144%.
For Cc1nn(C)cc1/C=C/C(=O)c1ccc(O)cc1, the Potency was inconclusive: 22.4 µM [inhibitor, partial curve].
For COc1cc2c(Cc3c4c5c(cc(OC)c(OC)c5c5c(OC)c(OC)ccc35)CCN4C)c3c4c(cc(OC)c(OC)c4c2cc1OC)CCN3C, the Potency was inconclusive: 11.2 µM [inhibitor, partial curve].
Cc1ccc(CNCc2cc3c(C(C)(C)C)nn(-c4ccccc4)c3[nH]c2=O)cc1 was tested, and the “activity, negative = inhibition” value was inactive: -12.7%.
With Cc1cc2ccccc2n1CCNC(=O)c1ccc(S(=O)(=O)N2CCOCC2)cc1 the Potency was inconclusive: 39.8 µM [inhibitor, partial curve].
With C/C(CCc1oc2ccccc2c1-c1ccc(C)o1)=N/O the Potency was inconclusive: 28.2 µM [inhibitor, single point].
O=C(CSc1nnc2c(n1)[nH]c1ccccc12)Nc1cccc(S(=O)(=O)N2CCOCC2)c1 was tested, and the “activity, negative = inhibition” value was inactive: -2.63%.
For CCOc1ccc(-c2noc(-c3cccnc3)n2)cc1OC, the Potency was inconclusive: 12.6 µM [inhibitor, partial curve].
In the case of CC(=O)c1ccc(NC(=O)CSc2nccn2Cc2ccc3c(c2)OCO3)cc1, the “activity, negative = inhibition” value is reported as inactive: 5.8%.
With Cc1nnc(SC/C=C/c2ccccc2)n(N)c1=O the “activity, negative = inhibition” value was inactive: -0.657%.
With O=C1c2ccccc2C(=O)N1CCCCN(C(=O)c1cc([N+](=O)[O-])ccc1Cl)c1ccc(Cl)cc1 the “activity, negative = inhibition” value was inactive: -9.6%.
In the case of COc1ccc(C2=Nn3c(nnc3-c3ccc(OC)cc3)SC2)cc1, the Potency is reported as inconclusive: 39.8 µM [inhibitor, single point].
In the case of CC(C)N=C1NN=C(c2cccs2)C(CC(=O)O)S1 (stereo not given), the Potency is reported as inconclusive: 20 µM [inhibitor, partial curve].
For COc1cc(NC(=O)c2ncn(-c3ccccc3)n2)cc(OC)c1, the Potency was inconclusive: 14.1 µM [inhibitor, partial curve, poor fit].
Cc1nnc(C)n1/N=C/c1cc(Br)cc(Br)c1O was tested, and the Potency was active: 11.2 µM.
With O=[N+]([O-])c1ccc(C=Nc2ccc(Cl)cc2Cl)s1 the Potency was inconclusive: 2.82 µM [inhibitor, full curve].
With O=C(Cn1nc(-c2ccc3c(c2)OCCO3)ccc1=O)Nc1cccc(NC(=O)c2ccccn2)c1 the “activity, negative = inhibition” value was inactive: 8.01%.
With O=C(CSc1ccc(Cl)cc1)NCc1ccco1 the “activity, negative = inhibition” value was inactive: 6.69%.
For CN1CC(C(=O)O)Cc2c1ccc1ccccc21 (stereo not given), the Potency was inconclusive: 35.5 µM [inhibitor, single point].
With O=C1OC(c2cccs2)=N/C1=C\c1ccc(-c2cccc(Cl)c2)o1 the Potency was inconclusive: 12.6 µM [inhibitor, partial curve].
In the case of Cc1cc(CSC(=N)N)c(CSC(=N)N)cc1C, the Potency is reported as inconclusive: 31.6 µM [inhibitor, single point].
For CCOc1ccc(NC(=O)Cn2c(=O)oc3cc(S(=O)(=O)N4CCC(C)CC4)ccc32)cc1, the “activity, negative = inhibition” value was inactive: 2.19%.
In the case of O=C(c1ccc(Cl)cc1)c1ccc(OCC(O)CN2CCCCC2)cc1 (stereo not given), the “activity, negative = inhibition” value is reported as inactive: -6.29%.
In the case of CC(C)(C)c1ccc(/C=N/N2CCN(c3ccccn3)CC2)cc1, the Potency is reported as inconclusive: 8.91 µM [inhibitor, partial curve].
CC(=O)n1cc([C@@H]2C=C(C(=O)NCc3ccccc3)O[C@H](OCc3ccc(CO)cc3)C2)c2ccccc21 was tested, and the Potency was inconclusive: 28.2 µM [inhibitor, single point].
For O=C(O)c1ccc(COc2ccc(Cl)cc2)o1, the “activity, negative = inhibition” value was inactive: -3.14%.
COc1ccc(CN(C(=O)Cc2coc3ccc(C)cc23)C2CCS(=O)(=O)C2)cc1 (stereo not given) was tested, and the “activity, negative = inhibition” value was inactive: -12.1%.
For Clc1ccc(CSc2cc3c(nn2)-c2ccccc2CC3)cc1Cl, the Potency was inconclusive: 7.08 µM [inhibitor, partial curve].
In the case of COc1ccc(OC)c(CCNC(=O)c2cc3c(=O)n(C)c4ccccc4c3n2C)c1, the Potency is reported as inconclusive: 8.91 µM [inhibitor, partial curve].
